Test results published in the supplement of paper PMC10126150.
Sequences with one replicate were seen in a single cluster, so their values are uncertain.

test system: ATP; assay: switch fluorescence ratio, 500 uM ATP over buffer (Cy3 cluster intensity, sum of 5 cycles each) (fold (ratio)); higher = stronger signal-on switching upon ATP binding; sequences stand for … in TCGTCGGCAGCGTCAGATGTGTATAAGAGACAGTTTTTTTTTTTTTTTTTTTTTTTTT…TC; conditions: aptamer strand: ATP DNA aptamer (quencher-CACCTGGGGGAGTATTGCGGAGGAAGG + anchor), 100 nM annealed; ATP concentration: 500 uM; one replicate
Method in brief: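 Exposure to 500 uM ATP lasted 15 min at 22 °C before imaging, and a selection-buffer image was taken beforehand, for Cy3-labelled switching-strand clusters on a modified Illumina MiSeq flow-cell annealed to 100 nM quencher-labelled ATP aptamer. Five buffer/ATP cycles were run with NaOH stripping and re-annealing between them. The fluorescence ratio per cluster is summed target-cycle over summed buffer-cycle Cy3 intensity, averaged per switch-domain sequence. Clusters outside 100-1000 RFU were excluded.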

| Sequence | switch fluorescence ratio |
| --- | --- |
| ACTTAAATAG | 1.02 |
| GATCCACATG | 1.06 |
| CCTTTTTTAG | 1.02 |
| GGTATGTGGC | 0.938 |
| GCCGACTAAC | 1.07 |
| CGTGTAGAGC | 1.02 |
| GTATGAGGG | 0.994 |
| CCTCTTTAAA | 1.54 |
| AGCTTGTCGT | 1 |
| GGGCTATCGA | 0.982 |
| TTCTCAGCGA | 3.67 |
| GAGTGAGGGG | 1.1 |
| ATCCAGGTCC | 1.08 |
| CTGCCACCAT | 1.01 |
| TCCGCTCTGG | 1.38 |
| ATCGTACTTA | 1.1 |
| AACCGCTATG | 1.13 |
| TCTTTTGAGA | 1.02 |
| TTTTCGACAG | 1 |
| ATGAACGCTA | 1.92 |
| TTGAGAAAG | 1.02 |
| ACACGTTTGC | 1.04 |
| CAGACTTTTT | 1.13 |
| TTTTGTGTAA | 0.95 |
| TTAAATTTAG | 0.988 |
| GGGTTGAAGC | 0.959 |

| Sequence | switch fluorescence ratio |
| --- | --- |
| AAAGATAAAC | 0.979 |
| GCTGTCGTGT | 1 |
| TTCGACAAGC | 1.16 |
| TGCTGATACG | 1.04 |
| GCAGTTAATG | 0.985 |
| GGTGATCGGA | 0.941 |
| TTCCTGGAGC | 1.05 |
| GAGTGTAA | 0.963 |
| TGAGGTCTGT | 0.999 |
| GTCACACAC | 1.36 |
| AGGTAAGGTA | 0.981 |
| ATGCCTATTG | 0.995 |
| TCAGTGAAGT | 1.05 |
| TCGGCGTCG | 1.03 |
| TTTCAGTCGA | 0.972 |
| ACGGGAGGGC | 1.04 |
| CTGAACCCAG | 1.07 |
| CTTTGATCAT | 1.01 |
| GACAGATTGC | 0.964 |
| ATGCGAAAGG | 1.02 |
| CGGCGAGCCA | 1.05 |
| AGATGCTTAC | 1.15 |
| TGATTTCTGT | 1.01 |
| ACGGACGTTG | 1.03 |
| ATTCAAAGAT | 1.01 |
| CAGCTGAACG | 1.03 |

| Sequence | switch fluorescence ratio |
| --- | --- |
| AAAGCTGTCG | 1.05 |
| TGAGACTCAC | 1.04 |
| AGGTGCAAGC | 0.979 |
| CCATGTTGGT | 0.989 |
| CGTTCCTGCT | 0.993 |
| ATAGGTGTTA | 1.02 |
| CCCGATCGG | 1 |
| TGATATTCGT | 1.02 |
| CCAAGCACGG | 1.47 |
| TAGGCCTATA | 1.01 |
| TGAAGACCTT | 1.12 |
| CAACCGATGT | 1.03 |
| AGAGAACTGG | 1.01 |
| CTGGCGTGTC | 1.01 |
| TACACGCAGA | 1.1 |
| GAGGTCGGAT | 0.947 |
| ACTTGGTCA | 1.05 |
| ACGGCACCTT | 1.49 |
| ATTTGACCTT | 1.22 |
| TTAGATTATT | 1.01 |
| ATATATGACA | 1 |
| GCTTCTAGGG | 0.997 |
| GCTCCTAAGA | 1.08 |
| GATTGAAGGC | 1.04 |
| CTCTTGTGCG | 0.988 |
| GCGTAATGCA | 1.03 |

| Sequence | switch fluorescence ratio |
| --- | --- |
| CGAAAGTCC | 1.02 |
| GCCCACGTTT | 1 |
| TAGAAATAAA | 0.985 |
| ATACTATTCA | 1.06 |
| GAAGTGGTTC | 0.99 |
| GTCACTTGTG | 0.969 |
| ATTGACCAAT | 1.06 |
| TATCAGGCT | 1.03 |
| GTCCGAGCCG | 0.96 |
| TCATTGTCG | 1.01 |
| GGATGTCGGT | 1.01 |
| GCATGTAGTA | 1.02 |
| AACACTGACA | 1.32 |
| GTCGTAAACC | 1.03 |
| TGGGTAATTA | 0.989 |
| TTTTGTA | 0.953 |
| TCAAGAGTGG | 1 |
| CACTTGTGAA | 0.977 |
| TACCTATTAC | 1.11 |
| CATGGATCTA | 0.979 |
| CACTTTATCT | 0.991 |
| TTGATGGTAG | 0.965 |
| TAATGGCCAC | 0.983 |
| GACTATGTTG | 1.04 |
| ATCCGTTCAC | 1.33 |
| TATATCTTGA | 1 |

| Sequence | switch fluorescence ratio |
| --- | --- |
| ACGTGGAAGT | 0.969 |
| CCTCAAGCGT | 5.39 |
| ATGATGAAAG | 0.978 |
| CGCTCGTGTA | 1.04 |
| AGTGCGTCAA | 1.04 |
| AGGGGAGTAC | 0.947 |
| GACCACTCAA | 1.03 |
| CGACAGGGAT | 1.03 |
| TAGCAGAGTT | 0.986 |
| TCGTACTCTG | 0.97 |
| CGTCCGTCAT | 1.33 |
| CGCTCTACCC | 2.81 |
| GCAGACTTA | 1.01 |
| GGCCACACAT | 1.01 |
| AAAAGGGTGT | 1.02 |
| AAGCCATATT | 1 |
| CAGAAAATAA | 1.39 |
| GGTTCGAGTA | 1.01 |
| CGGATCCCCA | 1.01 |
| AAGATGATAT | 0.974 |
| ACAGTCATAC | 1.33 |
| TTTTGCATT | 1.08 |
| GAAAAACGGG | 0.979 |
| AGTAGGCGAC | 1.02 |
| AAGGGATAAA | 0.963 |
| GGGTGCGAGG | 1.01 |

| Sequence | switch fluorescence ratio |
| --- | --- |
| GGAATGGAAG | 0.996 |
| ATATTACTTG | 1.01 |
| GCATTCAGCT | 0.989 |
| TTATCGCTA | 1.05 |
| ATTCTCTTTT | 0.969 |
| TACGGGCGAG | 1 |
| CTATCTCTCT | 0.924 |
| AGGCTAAGAG | 0.996 |
| TTTTAGACGC | 0.998 |
| GGCAGCCAGG | 1.12 |
| TGGTGCTTCT | 1 |
| TGAGCAAACC | 1.45 |
| GGCTCCGGG | 1 |
| AAACAGCATT | 3.28 |
| CAATGCTTTG | 0.989 |
| TAAATGTGTG | 0.986 |
| GCACTATAAT | 1.08 |
| GACATCGCGC | 1.17 |
| TGTTATGGTC | 1.42 |
| TAATCCAGGG | 1 |
| AGTAGAGAGA | 0.973 |
| GCACTATGTC | 1.13 |
| ATTTCTGGTG | 1.12 |
| GAGCTATCGG | 1.02 |
| CTTACGCAGA | 1.03 |
| CTACATCTGG | 0.967 |

| Sequence | switch fluorescence ratio |
| --- | --- |
| ATTCGTACCT | 1.17 |
| TGCGGGACGG | 1.02 |
| CAGAACAAAC | 1.11 |
| ACGCTAAATG | 1.13 |
| GAAATCTGGG | 0.943 |
| TAGCTGTCCT | 1.03 |
| CACTTTCTAA | 0.989 |
| GTTCTCATAT | 0.995 |
| AGATGAAAG | 1.01 |
| TAAGATATCG | 1.02 |
| GCAGCATGGT | 1.12 |
| TCCTTCCTA | 2.02 |
| GAGGGCCAAT | 1.01 |
| GTATCCGTG | 1.05 |
| CCCACCGGTG | 2.84 |
| AATGAGGCGA | 1.01 |
| GAACGATTCC | 1.21 |
| TGGTCGAGGT | 1.02 |
| CTAGGTAGCA | 1.03 |
| GTAGTGGGTT | 0.996 |
| AATACACGCG | 1.05 |
| TTGCTAACTC | 1.06 |
| TGAGGAGGC | 1.06 |
| TGGTAAAGAA | 0.988 |
| GTTTGCCGTG | 1.04 |
| GAGAACGGGT | 1.01 |

| Sequence | switch fluorescence ratio |
| --- | --- |
| CACTAAAGAA | 1 |
| TGATTAACAA | 1.05 |
| CTGGTTAGCG | 0.969 |
| ATGAAGTGT | 0.97 |
| CTACAAGACC | 1.14 |
| CAAGATTTAA | 0.995 |
| ATAGACAGGA | 0.945 |
| ACATGTAAAG | 1.02 |
| CTCCACCGAT | 1.41 |
| CACTGAGAGC | 1.02 |
| GTCTGTAAGG | 1.01 |
| CTGTACACTG | 1.05 |
| TGAACGGAGA | 1.01 |
| CAGCTGGAGG | 1.01 |
| ATTGGCCTTA | 1.03 |
| GCTACGGATA | 1.45 |
| TCTCACTGTG | 1.04 |
| CCACATCAAT | 1.45 |
| TCTTTGTGTC | 0.974 |
